Laboratory results reported in paper PMC9299179.

Substrate: CCCCCCCCCCCCO
Experiment: purified protein
Details: 100 mM Tris pH 8.5, 100 mM NaCl, 25 °C, co-substrate O2

B1: long chain alcohol oxidase (LCAO), A0A075HNX4 (uncultured marine euryarchaeote) (protein)
chain: MAQGAQRKNFGHNQILRPSAAYTPVDEQEVLQILDRHRGQRIRAVGRLHSWSEAVTGDGVLLDLQRLNDVRLQSDGDQLVATVGAGCQIKRLLKELNREGATLHSLGLITAQTIAGAISTGTHGSGRNSMSHYVVGVRLACYDASTGQAIIEELSAGEPLQAARCSLGSLGIILAVRIRCREQYNVQEHFTESRRLLDVMDAEAPFPLQQFYLLPWRWSYFIQHRREDDRPRSRLARLYRLYWLGTMDYGLILQILFLERVARSRRLIRLAFRRIIPAFLIRNWRVTDRSSSMLVMRHDAFRHIEIELFVRRDQLADALGFTQEVIKIAGGRESALSADNQRRIEELGMQEALAGLHDQYCHHFPICVRRVLPDDTLISMASGAGEDWYALSFISYAKPARRAGFSLFASFMARSMSRLFHARPHWGKVCPLEADELTSLYPRFDAFRTVCNTLDPQGVFQNDWTTALLEADGQVGDFP
- Km: 27.7 ± 3.8 µM
